Measured values as given in a compilation of properties of binary mixtures (doi:10.1007/s10953-011-9788-x).
The densities may have been worked out from excess volumes.

Assay: xn = mol fraction of the nth substance listed
Conditions: 101 kPa

CCCC[n+]1ccn(C)c1.N[C@@H](CCC(=O)O)C(=O)[O-] + CO
mass density (298.15 K, x2 = 0.1087): 1188 kg/m3
mass density (298.15 K, x2 = 0.4003): 1159.9 kg/m3
mass density (298.15 K, x2 = 0.4998): 1143.9 kg/m3
mass density (298.15 K, x2 = 0.6002): 1122.2 kg/m3
mass density (298.15 K, x2 = 0.8001): 1043.8 kg/m3
mass density (303.15 K, x2 = 0.1087): 1186.5 kg/m3
mass density (303.15 K, x2 = 0.2002): 1179.7 kg/m3
mass density (303.15 K, x2 = 0.2995): 1170.3 kg/m3
mass density (303.15 K, x2 = 0.4003): 1157.8 kg/m3
mass density (303.15 K, x2 = 0.4998): 1141.5 kg/m3
mass density (303.15 K, x2 = 0.7): 1088.5 kg/m3
mass density (303.15 K, x2 = 0.8001): 1040.4 kg/m3
mass density (303.15 K, x2 = 0.9): 956.6 kg/m3
mass density (308.15 K, x2 = 0.1087): 1184.7 kg/m3
mass density (308.15 K, x2 = 0.2002): 1177.7 kg/m3
mass density (308.15 K, x2 = 0.2995): 1168 kg/m3
mass density (308.15 K, x2 = 0.4003): 1155.2 kg/m3
mass density (308.15 K, x2 = 0.4998): 1138.7 kg/m3
mass density (308.15 K, x2 = 0.7): 1084.9 kg/m3
mass density (308.15 K, x2 = 0.9): 951.7 kg/m3
mass density (313.15 K, x2 = 0.1087): 1182.9 kg/m3
mass density (313.15 K, x2 = 0.2995): 1165.8 kg/m3
mass density (313.15 K, x2 = 0.4003): 1152.8 kg/m3
mass density (313.15 K, x2 = 0.4998): 1136 kg/m3
mass density (313.15 K, x2 = 0.6002): 1113.5 kg/m3
mass density (313.15 K, x2 = 0.8001): 1032.8 kg/m3
mass density (313.15 K, x2 = 0.9): 948 kg/m3
